# Measurements published in the supplement of paper PMC10600219.
# Structures can show the parent of a compound that is named as a salt. ± gives the standard deviation of the averaged measurements. Over roughly 2,800 compounds, “cell viability relative to vehicle” has its median near 0.98; the lowest 2% begin near 0.45. The list shows a part of the results.
# Tested on: NCI-H2228 alectinib-DTP
# Assay: cell viability relative to vehicle (fraction of vehicle); NCI-H2228 is an ALK-positive lung cancer line and DTP means drug-tolerant persister; higher = less growth inhibition
# Conditions: 100 nM; treatment time 6 days
# Outline: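 Parental NCI-H2228 cells and drug-tolerant persister cells (made with 1000 nM of a targeted drug for 13 days) were seeded in 384-well plates. The next day, the 3114-agent TargetMol anti-cancer compound library was added at 100 nM, with DMSO as vehicle. After 6 days, ATP was read with the CellTiter-Glo 3D Cell Viability Assay. Each value is cell viability relative to vehicle-treated cells.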
row,Compound,cell viability
1,Cc1c(-c2ccc(N3CCc4cccc(C(=O)Nc5nc6ccccc6s5)c4C3)nc2C(=O)O)cnn1CC12CC3CC(CC(C3)C1)C2,0.806
2,Cc1cc(N2CCOCC2)ccc1Nc1nc(NC2CCCCC2)c2[nH]cnc2n1,1.13
3,O=c1c(-c2ccc(O)cc2)coc2cc(O)cc(O)c12 [Genistein],0.922
4,CC(C)C[C@H](NC(=O)[C@@H](O)[C@H](N)Cc1ccccc1)C(=O)O [Ubenimex],1.05
5,CC(C)C[C@H](NC(=O)[C@@H](O)[C@H](N)Cc1ccccc1)C(=O)O [Bestatin hydrochloride],1.12
6,C=CCc1ccc(O)c(-c2ccc(O)c(CC=C)c2)c1 [Honokiol],1.07
7,CNC(=C[N+](=O)[O-])NCCSCc1ccc(CN(C)C)o1 [Ranitidine Hydrochloride],0.884
8,COc1cc2c(cc1OC)-c1cc3ccc(OC)c(OC)c3c[n+]1CC2 [Palmatine],1.12
9,COC(=O)[C@H]1[C@H]2C[C@@H]3c4[nH]c5cc(OC)ccc5c4CCN3C[C@H]2C[C@@H](OC(=O)c2cc(OC)c(OC)c(OC)c2)[C@@H]1OC [Reserpine],0.874
10,Cc1cc(-c2nc(-c3ccc(OC(F)(F)F)cc3)no2)nn1Cc1ccnc(N2CCN(C3CC3)CC2)c1,0.691
11,CC(C)(C)c1ccc(S(=O)(=O)Nc2ccc(-n3ccnc3)cc2)cc1,1.08
12,Cc1ccc2c(Nc3ccc(Cl)cc3)nccc2c1Nc1ncccc1-c1ncnc2nc[nH]c12 [B-Raf inhibitor 1 dihydrochloride],1.1
13,CC1=C(C(=O)Nc2cc3cn[nH]c3cc2F)C(c2ccc(Cl)cc2F)N=C(c2ccnc(Cl)c2)N1 (stereo not drawn),1
14,N#CCC(C1CCCC1)n1cc(-c2ncnc3[nH]ccc23)cn1 (stereo not drawn),1.16
15,Cc1cncc(CN2CCC(=C3c4ccc(Cl)cc4CCc4cccnc43)CC2)c1 [Rupatadine Fumarate],1.01
16,O=c1[nH]cc(F)c(=O)[nH]1 [Fluorouracil],1.1
17,O=c1ncn2nc(Sc3ccc(F)cc3F)ccc2c1-c1c(Cl)cccc1Cl [Neflamapimod],0.927
18,CNC(=O)c1ccccc1Oc1nc(Nc2cc(OC)c(OC)c(OC)c2)ncc1Br,1.08
19,CC(C)C(=O)SCCCCCCC(=O)Nc1nc(-c2ccccc2)cs1,0.995
20,CC(=O)Oc1cc(C(F)(F)F)ccc1C(=O)O [Triflusal],1.06
21,CN(C)CCCNC(=O)c1ccc(-c2cc(O)c3ncccc3c2)cc1,0.938
22,C[C@@H]1CC[C@@]2(NC1)O[C@H]1C[C@H]3[C@@H]4CC=C5C[C@@H](O[C@@H]6O[C@H](CO)[C@@H](O[C@@H]7O[C@@H](C)[C@H](O)[C@@H](O)[C@H]7O)[C@H](O)[C@H]6O[C@@H]6O[C@@H](C)[C@H](O)[C@@H](O)[C@H]6O)CC[C@]5(C)[C@H]4CC[C@]3(C)[C@H]1[C@@H]2C [Solamargine],1.06
23,O=C(O)Cc1ccccc1Nc1c(Cl)cccc1Cl [Diclofenac sodium],0.87
24,Cc1c(NC(=O)c2ccc(C(C)(C)C)cc2)cccc1-c1cn(C)c(=O)c(Nc2ccc(C(=O)N3CCOCC3)cc2)n1,0.894
25,C[C@@H](c1ncncc1F)[C@](O)(Cn1cncn1)c1ccc(F)cc1F [Voriconazole],0.977
26,CC1(C)OC(=O)C=C[C@]2(C)[C@H]3CC[C@@]4(C)[C@H](c5ccoc5)OC(=O)[C@H]5O[C@]54[C@]3(C)C(=O)C[C@@H]12 [Obacunone],0.95

row,Compound,cell viability
1,Cc1cccc(-c2[nH]c(C(C)(C)C)nc2-c2ccc3nccnc3c2)n1,1.06
2,COc1ccc(-c2oc3c(CC=C(C)C)c(O)cc(O)c3c(=O)c2O[C@@H]2O[C@@H](C)[C@H](O)[C@@H](O)[C@H]2O)cc1 [Baohuoside I],1.06
3,CC[C@H](C)n1cc(C)c2c(C(=O)NCc3c(C)cc(C)[nH]c3=O)cc(-c3ccc(N4CCNCC4)nc3)cc21,1.13
4,Nc1cccc(S(=O)(=O)N2CCCN(S(=O)(=O)c3ccc4c(c3)OCCO4)CC2)c1,1.05
5,OCC1(O)COc2cc(O)ccc2-c2cc(O)c(O)cc2C1 (stereo not drawn) [Protosappanin B],1.06
6,CC[C@@]1(O)C(=O)OCc2c1cc1n(c2=O)Cc2cc3cc(O)ccc3nc2-1 [10-Hydroxycamptothecin],0.304
7,CC[C@@]1(O)C(=O)OCc2c1cc1n(c2=O)Cc2cc3cc(O)ccc3nc2-1 [Hydroxy Camptothecine],0.255
8,CN1CCN(CCCNc2ncc(Cl)c(-c3cc4c(C(=O)NC5CC5)cccc4s3)n2)CC1,0.958
9,CCCCCCCCCCCCCCCCCC(=O)O [Stearic acid],0.881
10,CC(C)CCN1c2nc(Nc3cc(F)c(O)c(F)c3)ncc2N(C)C(=O)C1C (stereo not drawn),0.91
11,O=C1NC(=O)/C(=C/c2ccc(-c3ccc(F)cc3O)o2)S1,0.967
12,Cc1cnc(Nc2ccc(N3CCN(C)CC3)cc2)nc1Nc1cccc(S(=O)(=O)NC(C)(C)C)c1,0.784
13,O=C1C(CC[S+]([O-])c2ccccc2)C(=O)N(c2ccccc2)N1c1ccccc1 (stereo not drawn) [Sulfinpyrazone],1.18
14,NS(=O)(=O)c1cc2c(cc1Cl)N=C(CSCc1ccccc1)NS2(=O)=O [Benzthiazide],1.19
15,CC(=O)OC/C=C(C)/C=C/C=C(C)/C=C/C1=C(C)CCCC1(C)C [Retinyl acetate],1.07
16,CCCC(C)NC(=O)c1ccc(Cl)c(Cl)c1 (stereo not drawn),1.07
17,Nc1ccc(S(=O)(=O)Nc2ncccn2)cc1 [Sulfadiazine],0.913
18,NC(=O)c1ccc2nc(-c3ccc(Oc4ccc(Cl)cc4)cc3)[nH]c2c1,1.01
19,CNC1CCC(N(Cc2cccc(-c3ccncc3)c2)C(=O)c2sc3ccccc3c2Cl)CC1 (stereo not drawn),1.08
20,Oc1cc(-c2nc(-c3ccccc3)[nH]c2-c2ccncc2)ccc1Cl,1.22
21,CC(C)[C@H](C(=O)Nc1ccc(C(=O)NO)cc1)c1ccccc1,0.801
22,C#C[C@]1(OC(C)=O)CC[C@H]2[C@@H]3CCC4=C[C@@H](OC(C)=O)CC[C@@H]4[C@H]3CC[C@@]21C [Ethynodiol diacetate],0.946
23,C#C[C@]1(O)CC[C@H]2[C@@H]3CCC4=CC(=O)CC[C@@H]4[C@H]3CC[C@@]21C [Norethindrone],0.815
24,O=C(NC[C@H](O)CN1CCc2ccccc2C1)c1ccnc(NC2CCC2)c1,0.816
25,COc1ccc(C(=O)N2CCN(c3ccc4c(c3)CCC(=O)N4)CC2)cc1OC [Vesnarinone],1.02
26,COc1cc2c(cc1O)CC[C@@H]1[C@@H]2CC[C@]2(C)[C@@H](O)CC[C@@H]12 [2-Methoxyestradiol],0.973

row,Compound,cell viability
1,COc1cc(N2CCN(C)CC2)ccc1Nc1nccc(-c2cn(C)c3cnccc23)n1,0.973
2,COC(=O)C1=C(C)NC(C)=C(C(=O)OC)C1c1ccccc1[N+](=O)[O-] [Nifedipine],1.02
3,O=C(Nc1nc(-c2ccc(O)c(O)c2)c(-c2ccccc2)s1)c1ccc(O)c(O)c1,1.03
4,O=c1[nH]c(=O)n([C@@H]2O[C@H](CO)[C@@H](O)[C@H]2O)cc1F [5-Fluorouridine],0.837
5,CN(C)CCCN1c2ccccc2CCc2ccc(Cl)cc21 [Clomipramine hydrochloride],0.992
6,O=C(O)CSc1cc(NS(=O)(=O)c2ccc(Br)cc2)c2ccccc2c1O,0.897
7,COC(=O)N1CCN(Cc2cccc(NC(=O)Nc3ccc(C)nc3)c2F)CC1 [Omecamtiv mecarbil],1.03
8,O=C1NC(=O)/C(=C\c2ccc3nccnc3c2)S1,0.989
9,Cc1cc(NC(=O)C2=C(O)c3ccccc3S(=O)(=O)N2C)no1 [Isoxicam],0.961
10,Nc1ccc(O)c(C(=O)O)c1 [Mesalamine],1.14
11,CCC(=O)O[C@H](CC(=O)O)C[N+](C)(C)C [Propionyl-L-carnitine hydrochloride],0.992
12,O=C1c2cccc3c2[C@H](CCC3)CN1[C@@H]1CN2CCC1CC2 [Palonosetron hydrochloride],1.03
13,COc1cc(/C=C/C(=O)CC(=O)/C=C/c2ccc(O)c(OC)c2)ccc1O [Curcumin],1.07
14,O=C(O)CSCC(=O)NC1CCSC1=O (stereo not drawn) [Erdosteine],1.03
15,COC(=O)c1ccc2c(C(=Nc3ccc(N(C)C(=O)CN4CCN(C)CC4)cc3)c3ccccc3)c(O)[nH]c2c1 [Nintedanib Ethanesulfonate Salt],0.899
16,O=C1NC(=O)/C(=C/c2cccc(C(F)(F)F)c2)S1,0.967 ± 0.074
17,Cc1cc(O)c2c(c1)C(=O)c1cc(O)cc(O)c1C2=O [Emodin],0.954
18,Clc1ccc(Nc2nnc(Cc3ccncc3)c3ccccc23)cc1 [Vatalanib 2HCl],1.05
19,Cn1cc(-c2ccc3nnc(Sc4ccc5ncccc5c4)n3n2)cn1,0.98
20,C[N+](C)(C)CCO.[Cl-] [Choline chloride],1.06
21,CN1CCN(C2CCN(C(=O)Nc3cc(Oc4ccc(NC(=O)C5(C(=O)Nc6ccc(F)cc6)CC5)c(F)c4)ccn3)CC2)CC1 [Golvatinib],1.12
22,C/C=C1\[C@H]2C=C(C)C[C@]1(N)c1ccc(=O)[nH]c1C2 [(-)-Huperzine A],0.98
23,CC(C)=CCOc1c2ccoc2cc2oc(=O)ccc12 [Isoimperatorin],0.933
24,COc1cc(/C=C/C(=O)NCCn2c(C(F)(F)F)cc3ccccc32)cc(OC)c1OC,0.985
25,CN1CCC(OC(c2ccccc2)c2ccccc2)CC1 [Diphenylpyraline hydrochloride],1.13
26,CC(C)=CCC[C@](C)(O[C@@H]1O[C@H](CO[C@@H]2O[C@H](CO)[C@@H](O)[C@H](O)[C@H]2O)[C@@H](O)[C@H](O)[C@H]1O)[C@H]1CC[C@]2(C)[C@@H]1[C@H](O)C[C@@H]1[C@@]3(C)CC[C@H](O[C@@H]4O[C@H](CO)[C@@H](O)[C@H](O)[C@H]4O[C@@H]4O[C@H](CO)[C@@H](O)[C@H](O)[C@H]4O)C(C)(C)[C@@H]3CC[C@]12C [Ginsenoside Rb1],0.976
